About 14,000 (4.5%) of roughly 310,000 compounds showed an effect of 50% or more. The effect is printed as a negative number. The list shows a part of the results.
target: human ether-à-go-go-related gene (hERG) potassium channel (human, UniProt Q12809); assay: primary screen, population patch clamp on CHO cells stably expressing hERG
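Note: peak tail current of the secondary pulse compared with the same well before compound.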

Chain of human ether-à-go-go-related gene (hERG) potassium channel (Q12809 whole entry, looked up): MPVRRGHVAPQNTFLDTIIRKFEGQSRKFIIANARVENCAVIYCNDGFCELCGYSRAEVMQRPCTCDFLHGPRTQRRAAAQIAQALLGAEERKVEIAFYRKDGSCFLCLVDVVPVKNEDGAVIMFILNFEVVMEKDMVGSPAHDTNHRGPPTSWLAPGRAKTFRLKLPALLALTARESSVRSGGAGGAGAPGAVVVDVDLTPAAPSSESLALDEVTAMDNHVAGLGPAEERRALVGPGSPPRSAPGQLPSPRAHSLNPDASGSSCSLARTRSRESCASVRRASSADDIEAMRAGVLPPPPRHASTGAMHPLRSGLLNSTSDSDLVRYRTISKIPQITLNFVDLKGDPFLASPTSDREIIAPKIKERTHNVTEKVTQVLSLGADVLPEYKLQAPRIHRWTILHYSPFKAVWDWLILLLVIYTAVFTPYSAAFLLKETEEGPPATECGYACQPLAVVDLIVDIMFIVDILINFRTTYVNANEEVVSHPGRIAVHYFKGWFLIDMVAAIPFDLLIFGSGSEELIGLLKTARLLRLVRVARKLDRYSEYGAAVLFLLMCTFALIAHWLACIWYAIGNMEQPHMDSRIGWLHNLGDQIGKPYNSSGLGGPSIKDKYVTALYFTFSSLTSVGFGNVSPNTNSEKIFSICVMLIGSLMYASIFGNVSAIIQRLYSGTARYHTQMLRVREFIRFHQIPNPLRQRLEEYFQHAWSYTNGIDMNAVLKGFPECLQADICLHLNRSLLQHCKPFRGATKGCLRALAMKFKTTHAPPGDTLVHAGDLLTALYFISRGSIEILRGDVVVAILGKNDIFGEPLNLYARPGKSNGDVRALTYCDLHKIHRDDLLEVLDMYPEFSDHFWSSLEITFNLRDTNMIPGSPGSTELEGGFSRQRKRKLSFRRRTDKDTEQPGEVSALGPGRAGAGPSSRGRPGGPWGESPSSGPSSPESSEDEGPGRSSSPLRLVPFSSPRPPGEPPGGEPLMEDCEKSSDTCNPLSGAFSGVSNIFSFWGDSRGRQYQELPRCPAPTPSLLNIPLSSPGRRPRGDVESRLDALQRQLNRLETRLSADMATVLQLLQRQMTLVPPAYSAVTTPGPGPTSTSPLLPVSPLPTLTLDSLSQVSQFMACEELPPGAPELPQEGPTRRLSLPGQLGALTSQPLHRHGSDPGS

First: O=C(O)c1nc(N2CCCC2)ncc1Cl
Second: O=C(Nc1ccc(N2CCCC2)cc1)c1cc2ccccc2o1
The “hERG current change (%, negative = inhibition) at 10uM” value of the first is lower: 16.5% for the first, 20.4% for the second.

Going from COc1ccccc1N1CCN(C(=O)c2ccc3[nH]c4c(c3c2)CC(C)CC4)CC1 (stereo not drawn) to CCOC(=O)C(c1ccccc1)N1CCN(c2ccc(OC)cc2)CC1 (stereo not drawn), the “hERG current change (%, negative = inhibition) at 10uM” value falls from 11% to 4.91%.

First: O=C(/C=C/Nc1ccc(Cc2ccc(N/C=C/C(=O)C(F)(F)F)cc2)cc1)C(F)(F)F
Second: COc1ccc(C(=O)N/C=C/n2cnc3cc(C(F)(F)F)ccc32)cc1
The “hERG current change (%, negative = inhibition) at 10uM” value of the first is higher: -2.35% for the first, -9.71% for the second.

Compared with O=C1Oc2ccccc2C2(O)C3CCCCCC3C12 (stereo not drawn), CC1CC2(C)Oc3ccccc3C3OCC1(CO)C(C)C32 (stereo not drawn) is higher in “hERG current change (%, negative = inhibition) at 10uM” value: -5.02% for the first, 5.07% for the second.

Compared with S=c1[nH]nc(Cc2sc(-c3ccccc3)nc2-c2ccccc2)o1, O=c1[nH]c(SCc2n[nH]c(=S)n2-c2ccccc2)nc2ccccc12 is lower in “hERG current change (%, negative = inhibition) at 10uM” value: 21.6% for the first, 14% for the second.

Going from CCOC(=O)C1CCCN(CCC(=O)Nc2ccc(Br)cc2)C1.Cl (stereo not drawn) to CCOC(=O)C1CCCN(C2=NC(=O)/C(=C/c3ccc(O)c(OC)c3)S2)C1 (stereo not drawn), the “hERG current change (%, negative = inhibition) at 10uM” value rises from -66.7% to -43.5%.

Going from COc1ccc(Cl)cc1S(=O)(=O)NC(C)C(=O)NCc1ccccn1 (stereo not drawn) to COc1ccc(OC)c(S(=O)(=O)N2CCCC(C(=O)NCc3ccccn3)C2)c1 (stereo not drawn), the “hERG current change (%, negative = inhibition) at 10uM” value falls from 11.4% to 1.55%.

First: COc1cccc(C(=O)NCCSc2ccc(Br)cc2)c1
Second: COc1ccc(Cc2nnc(NC(=O)c3ccccc3F)s2)cc1
The “hERG current change (%, negative = inhibition) at 10uM” value of the first is lower: -45.6% for the first, 17.3% for the second.

Going from CC(C)CNC(=O)CSc1nnc(-c2cccc(S(=O)(=O)N3CCCCC3)c2)o1 to CC1CCN(CC(=O)Nc2ccc(S(=O)(=O)N3CCCCC3)cc2)CC1, the “hERG current change (%, negative = inhibition) at 10uM” value falls from 4.34% to -17.6%.

Compared with CCN1C=C(Cc2ccc(F)cc2)C2=C(C1)C(c1ccc(F)cc1)C(C#N)=C(N)O2 (stereo not drawn), C/C(=N\NC(=O)c1ccccc1OCc1ccc(F)cc1)c1ccccn1 is higher in “hERG current change (%, negative = inhibition) at 10uM” value: -4.99% for the first, -0.556% for the second.

Compared with O=C(O)/C(=C\C(=O)c1ccccc1)Nc1ccccc1, CC/C(=N\NC(=S)Nc1cccc(C)c1)c1ccccc1 is lower in “hERG current change (%, negative = inhibition) at 10uM” value: 10.8% for the first, -4.73% for the second.

First: Cc1ccc2nc(NC(=O)CSCC(=O)OCC(=O)c3ccc(Br)cc3)sc2c1
Second: Cc1ccc(C(=O)CC(=O)c2ccc(C)cc2O)cc1
The “hERG current change (%, negative = inhibition) at 10uM” value of the first is lower: 16.5% for the first, 19.3% for the second.

Compared with O=C(CN1C(=O)CCSc2ccc(S(=O)(=O)N3CCOCC3)cc21)Nc1cccc(F)c1, COc1ccc(C)cc1NC(=O)CN1C(=O)COc2ccc(C)cc21 is higher in “hERG current change (%, negative = inhibition) at 10uM” value: 0.473% for the first, 19.8% for the second.

Compared with NC(=O)c1c(NC(=O)Cn2cc([N+](=O)[O-])cn2)sc2c1CCCC2, Cc1sc(-c2c(C#N)c(N)nc3c2CCCCCC3)cc1[N+](=O)[O-] is lower in “hERG current change (%, negative = inhibition) at 10uM” value: 5.04% for the first, -4.1% for the second.

Going from CN(C)N=Nc1nc2c(c(=O)n(C)c(=O)n2C)n1C to CC(C)CC1(C)NC(=O)N(CCN2C(=O)c3ccccc3C2=O)C1=O (stereo not drawn), the “hERG current change (%, negative = inhibition) at 10uM” value rises from 11.1% to 19.7%.

Compared with COc1ccc(S(=O)(=O)NCCOc2ccccc2)cc1F, COc1ccc(-c2nn3c(COc4ccccc4)nnc3s2)cc1OC is lower in “hERG current change (%, negative = inhibition) at 10uM” value: 8.52% for the first, -10.7% for the second.

Compared with Cc1cc(C(=O)COC(=O)CNC(=O)c2ccccc2)c(C)n1CC1CCCO1 (stereo not drawn), COC(=O)c1ccc(NC(=O)C2CCN(C(=O)Nc3ccccc3)CC2)cc1 is lower in “hERG current change (%, negative = inhibition) at 10uM” value: 6.64% for the first, -10% for the second.

Going from CCN(CC)CCn1c2c(c(SCC(=O)Nc3cc(C)ccc3C)nc1=O)CCC2 to Cc1ccc(NC(=O)CSc2nc(=O)cc(N)n2-c2ccccc2)cc1, the “hERG current change (%, negative = inhibition) at 10uM” value rises from -61% to 20.3%.

Going from CCCc1nn(C)c(C(=O)Nc2ccc(Cl)cc2)c1Cl to NC(=O)C(c1ccc(Cl)cc1)c1ccc(Sc2ccccc2)nn1 (stereo not drawn), the “hERG current change (%, negative = inhibition) at 10uM” value falls from 10.2% to -18.9%.

Going from COc1cccc(/C=c2\s/c(=C/C(=O)c3ccc(C)cc3)[nH]c2=O)c1OC to COc1ccc(CN(C)C(=O)CNC(=O)Cc2cccc3ccccc23)c(OC)c1OC, the “hERG current change (%, negative = inhibition) at 10uM” value rises from -7.42% to -1.27%.

Compared with CCOc1ccc(CCNC(=O)COc2cccc(-n3cnnn3)c2)cc1OCC, COc1cc(C(=O)CSc2nncn2C)cc(OC)c1OC is higher in “hERG current change (%, negative = inhibition) at 10uM” value: -23.1% for the first, 6.63% for the second.

Going from COc1ccc(C2C3=C(CCCC3=O)Nc3ccc4ncccc4c32)cc1OC (stereo not drawn) to COc1ccc(CCN2CC3=C(C2=O)C(c2ccccc2)NC(=O)N3C)cc1OC (stereo not drawn), the “hERG current change (%, negative = inhibition) at 10uM” value rises from -25.7% to -13%.

Going from COC(=O)C1=C(c2cc3ccccc3o2)C[C@@H]2CC[C@H]1N2C(=O)N1CCC(C)CC1 to COc1cccc(CN2CCN(C(=O)c3cccc4ccccc34)CC2)c1.O=C(O)C(=O)O, the “hERG current change (%, negative = inhibition) at 10uM” value falls from -1.39% to -12%.

Going from CCCCN(CCCC)c1ncnc2nc[nH]c12 to CCOc1ccc(Br)cc1S(=O)(=O)NCCN(C)C, the “hERG current change (%, negative = inhibition) at 10uM” value rises from -21.8% to 7.6%.

Going from CSc1nc2c(cc1C#N)CCCCC2 to Cn1nc(C(F)(F)F)c(C#N)c1N1CCN(c2ccccc2)CC1, the “hERG current change (%, negative = inhibition) at 10uM” value falls from 7.65% to -22%.

Compared with CCOCCCNC(=O)c1ccccc1SC, Cc1ccccc1OCC(=O)N/N=C/c1cccn1C is higher in “hERG current change (%, negative = inhibition) at 10uM” value: -4.87% for the first, 7.04% for the second.

Compared with C=CCN=C(NC#N)SCc1ccccc1, O=C(OCC#CCSc1nc2ccccc2o1)c1ccco1 is lower in “hERG current change (%, negative = inhibition) at 10uM” value: 13.2% for the first, -20.8% for the second.

First: Nc1c(NCCN2CCOCC2)c2ccccc2oc1=O
Second: CN1CCN(CCOc2ccc(-c3ccccc3)cc2)CC1.Cl
The “hERG current change (%, negative = inhibition) at 10uM” value of the first is higher: 7.96% for the first, -56.3% for the second.

Compared with O=C(Nc1cccc2ccccc12)c1cnccn1, Cn1c(SCc2cccc3ccccc23)nnc1-c1ccco1 is lower in “hERG current change (%, negative = inhibition) at 10uM” value: -4.09% for the first, -48.3% for the second.

Compared with Nc1cccc(C(=O)OCC(=O)Nc2cccc3c2C(=O)c2ccccc2C3=O)c1, Nc1cccc2c1C(=O)N(C(=O)/C=C/c1cccc(F)c1)C2=O is lower in “hERG current change (%, negative = inhibition) at 10uM” value: 10.9% for the first, -3.29% for the second.

First: O=C(CNC(=O)c1ccc(Br)o1)Nc1ccncc1
Second: O=C(Nc1c2c(nn1-c1ccc(F)cc1)CS(=O)C2)c1ccc(Br)o1 (stereo not drawn)
The “hERG current change (%, negative = inhibition) at 10uM” value of the first is lower: -0.198% for the first, 3.67% for the second.

Compared with O=C(CSc1n[nH]c(-c2cccs2)n1)NC1CCS(=O)(=O)C1 (stereo not drawn), O=C(CSc1ccc(Br)cc1)NC1CCS(=O)(=O)C1 (stereo not drawn) is higher in “hERG current change (%, negative = inhibition) at 10uM” value: -6.81% for the first, 5.33% for the second.

Compared with Cc1ccccc1Cn1c(C(C)O)nc2ccccc21 (stereo not drawn), COC(=O)Nc1nc2ccc(Sc3ccccc3)cc2[nH]1 is higher in “hERG current change (%, negative = inhibition) at 10uM” value: 4.7% for the first, 18.5% for the second.

Going from Cc1cccn2c(=O)c(C=C(C#N)C#N)c(N3CCN(c4cccc(Cl)c4)CC3)nc12 to O=C(Cc1cccs1)N1CCCC(c2nc3c(nnn3Cc3cccc(Cl)c3)c(=O)[nH]2)C1 (stereo not drawn), the “hERG current change (%, negative = inhibition) at 10uM” value falls from 13.3% to -55.6%.

Compared with CCOC(=O)C1=C(C)NC(=O)NC1c1ccc(Br)s1 (stereo not drawn), CC1=C(C(=O)Nc2ccccc2F)C(c2cccs2)NC(=S)N1 (stereo not drawn) is lower in “hERG current change (%, negative = inhibition) at 10uM” value: -3.07% for the first, -9.13% for the second.

Compared with O=C(CNCCC1=CCCCC1)Nc1ccc(N2CCCCCC2)cc1.O=C(O)C(=O)O, O=C(NCCC1=CCCCC1)C1CCN(S(=O)(=O)c2cccs2)CC1 is higher in “hERG current change (%, negative = inhibition) at 10uM” value: -32% for the first, -29.2% for the second.

First: CCN(CC)c1nc(N)c2c(N)nc3c(c2c1C#N)CC(c1ccccc1)O3 (stereo not drawn)
Second: CCOC(=O)c1c(CN(C)C)n(-c2ccccc2)c2cc(Br)c(O)cc12.Cl
The “hERG current change (%, negative = inhibition) at 10uM” value of the first is higher: -6.07% for the first, -75.8% for the second.

Compared with CC1CN(C(=S)Nc2ccccc2C(F)(F)F)CC(C)O1 (stereo not drawn), COc1ccc(CCC(C)Nc2ccccc2F)cc1 (stereo not drawn) is higher in “hERG current change (%, negative = inhibition) at 10uM” value: -36.3% for the first, 20.2% for the second.

Going from O=S(=O)(Nc1ccc2c(c1)OCO2)c1cccs1 to O=S(=O)(Nc1ncccn1)c1ccc(NC(=S)NCc2cccnc2)cc1, the “hERG current change (%, negative = inhibition) at 10uM” value rises from -0.368% to 33.8%.

Going from COc1ccc(-n2c(-c3ccccc3)cc3c2CCCC3=O)cc1 to C=CCn1c(=O)c2ccccc2n2c(SCC(=O)N3CCCc4ccccc43)nnc12, the “hERG current change (%, negative = inhibition) at 10uM” value rises from -47.6% to -16%.

Going from C[C@H](N)c1nnc(SCc2c(Cl)cccc2Cl)o1.Cl to CCOC(=O)c1c(C(C)(C)C)oc2ccc(OCC#N)cc12, the “hERG current change (%, negative = inhibition) at 10uM” value falls from 1.5% to -4.17%.

First: CON/C=N/C(=S)Nc1ncc(C(F)(F)F)cc1Cl
Second: COC(C(=O)N/N=C(\C)c1ccc(C(C)(C)C)cc1)c1ccccc1 (stereo not drawn)
The “hERG current change (%, negative = inhibition) at 10uM” value of the first is lower: 7.28% for the first, 13.1% for the second.

Going from CC(=O)C(C(C)=O)c1cc(NS(=O)(=O)c2ccccc2)ccc1NS(=O)(=O)c1ccccc1 to Cc1cc(O)c(C(C)C)cc1N=Cc1ccccc1O, the “hERG current change (%, negative = inhibition) at 10uM” value rises from -10.5% to 3.77%.

Going from CC(=O)c1ccc(N(CC(=O)NC2CCCC2)C(=O)CNC(=O)c2cccs2)cc1 to COc1cc(C(C2C(=O)CC(C)(C)CC2=O)C2C(=O)CC(C)(C)CC2=O)ccc1O, the “hERG current change (%, negative = inhibition) at 10uM” value rises from 12.4% to 16.8%.

Compared with Cc1cc(C)n(-c2nc(NCC3CCCO3)c3c4c(sc3n2)COC(C)(C)C4)n1 (stereo not drawn), CCCCC(c1nnnn1CCOC)N1CCN(C)CC1.Cl (stereo not drawn) is higher in “hERG current change (%, negative = inhibition) at 10uM” value: -20.2% for the first, 1.46% for the second.
